These results are taken from the RNAGym collection of RNA variant scans (doi:10.1093/nar/gkz1192).

First the molecules themselves.
B1: CPEB3 Ribozyme (parent)
chain: UAACAGGGGGCCACAGCAGAAGCGUUCACGUCGCAGCCCCUGUCAGAUUCUGGUGAAUCUGCGAAUUCUGCUGUAUAUCUC

The source gives no read counts; variants with many changes may rest on few reads.

Variants of B1 are the subject of the data set. Nature of the data set: self-cleavage, relative activity (ratio to wild type); higher = more cleavage; in vitro, sequencing. In short, it runs like this: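 CPEB3 self-cleaving ribozyme mutant libraries were made by rounds of error-prone PCR, barcoded, and transcribed in vitro with T7 RNA polymerase for 5 hours at 37°C. Cleavage occurred during transcription and a 15 min DNase I step before EDTA stop. RNAs were reverse transcribed with template switching and Illumina-sequenced, with DNA sequencing mapping barcodes to variants. Relative activity is the variant's cleaved/total read fraction divided by wild type's (minimum 5 reads), averaged across three batches.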
With U1C A18C U41C U54G A56U U69C, the self-cleavage is 0.1.
Consider U1C A15U G19U U25C, for which the self-cleavage is 0.24.
Regarding U1C A65U U80C, the self-cleavage was 0.13.
In the case of U1C A28G A35U U41A G52A A77G, the self-cleavage is 0.1.
Turning to U1C G33U C39U A57G A65G, the self-cleavage was determined as 0.17.
With U1C A5U G10U A45G A57G U69C, the self-cleavage is 0.05.
With A2G A3G A5U U26C A64G, the self-cleavage worked out at 0.49.
U1G A15U G16A A18G U31C C40U U58A: the self-cleavage was 0.05.
Take U1C U26C A28C U80A: the self-cleavage worked out at 0.06.
For U1C A15U U31C C44U A57G U69A, the self-cleavage came to 0.2.
Consider U1C C12U U26C U43C A77U, for which the self-cleavage was found to be 1.12.
As for U1C A20G U31C C40A, the self-cleavage was found to be 0.28.
Regarding U1C A28G G33A C79U, the self-cleavage came to 0.04.
For the variant U1C A47G A77G, the self-cleavage was found to be 1.05.
On to A2G A13G U60C, for which the self-cleavage is 0.55.
Regarding U1C A15G G22A G52A U67A U74C A77U, the self-cleavage was found to be 0.04.
To U1C G10A A18C A45C U49C U67A belongs 0.05; to U1C A28U U66C, 0.27; to A2C A13U U66C A77G, 0.39.
Take U1C U25G A56G C79A: the self-cleavage was 0.06.
In the case of A2G A5G U25C U48C A57G U69A, the self-cleavage was found to be 0.3.
To U1C A56U U58C belongs 0.1.
For U1C G10C U25C C32U U41C C62U the value was 0.04; for A2G A5G A21G A57G U72C, 0.15.
In the case of A2C A35U A45G U72A, the self-cleavage is 0.22.
In the case of U1C G73A U80C, the self-cleavage was found to be 1.27.
On to A2G A5U U25C C38U, for which the self-cleavage amounted to 0.1.
Consider A2C G8A C39A, for which the self-cleavage turned out to be 0.08.
With U1C C40U C44A, the self-cleavage was 0.43.
As to U1C A5U C37U U74C, the self-cleavage was 0.65.
U1C A15G U31A: the self-cleavage is 0.33.
To U1C U48C U58A belongs 0.16; to A2G A13U A28G U43C C62U U72C, 0.08; to U1C A5G U48C, 0.62.
For the variant A2G A15U U76C, the self-cleavage was found to be 0.31.
As for U1C G9A G10C G30U U60C U74A U78C, the self-cleavage was found to be 0.04.
Turning to U1C A56G C62U A65G U67C C79A, the self-cleavage stood at 0.18.
With U1C A21G U26C A77G U78C, the self-cleavage turned out to be 0.06.
With A2C G6A A15U A35U A45G U72A, the self-cleavage was found to be 0.06.
Turning to U1C A13U A64G U69C, the self-cleavage turned out to be 0.41.
In the case of U1C U31C U80C, the self-cleavage was found to be 0.74.
Turning to U1G G6U G10U U48C A56G, the self-cleavage came out at 0.23.
To U1C G10A A28G U60C belongs 0.06; to A2G A18U A28G A35G U49A A65G U80C, 0.06; to U1C G10A A21U U25C U31C A35G, 0.23.
On to U1C U26A A47G A77G U78A, for which the self-cleavage came to 0.87.
As for U1C A5U A15G U41C U43C A75G, the self-cleavage turned out to be 0.
In the case of U1C A13U U25C A57G U72A, the self-cleavage is 0.06.
With U1G U25C C40A A56G A75G A77U, the self-cleavage came out at 0.27.
As for U1C C39U U60A U76C, the self-cleavage was 0.3.
To U1G C39G U41A G61U belongs 0.18; to U1C G9A C50U U54C U66C C71U, 0.08.
As for A2C A5C C27U U66C, the self-cleavage stood at 0.25.
In the case of A2C A21U G33U, the self-cleavage was determined as 0.16.
In the case of U1G A13G A20U U25A C44U, the self-cleavage amounted to 0.07.
For the variant U1C G22U A45U U54C U67A, the self-cleavage turned out to be 0.06.
Turning to U1C U41C G42A G73U, the self-cleavage was determined as 0.2.
To U1C U49C U74C belongs 0.28; to U1C U26C A77G, 0.72; to A2G A15U A20U A64G U67G, 0.03.
With U1C C4A U76C U78C, the self-cleavage came out at 1.21.
Turning to U1C A15G U41C U66G A77G, the self-cleavage stood at 0.34.
As to U1C A21G C39G U49C U54A U69C A75U, the self-cleavage stood at 0.03.
For U1G A45G U69A the value was 0.51; for U1C G9A A57G U76A, 0.11.
In the case of A2G A20G A56U A77G, the self-cleavage was determined as 0.15.
As to U1C U25A U26C U66A U69C, the self-cleavage stood at 0.05.
As to U1C G19U A20G A21U U60A, the self-cleavage is 0.17.
Turning to A2G A13G A15U A35U C44A A75U, the self-cleavage came to 0.08.
Turning to U1C G10U U25C U41C U69A, the self-cleavage amounted to 0.05.
On to U1C C11U A13U U31A U43C U69C, for which the self-cleavage came out at 0.04.
For U1C G9U A65G, the self-cleavage was found to be 0.12.
To A2G A18U U80C belongs 0.54; to U1C U43C A47G A57U A64U, 0.07; to A2G A3U U43A U67C, 0.5.
On to U1C A18G U26A, for which the self-cleavage amounted to 0.36.
For U1C G8A A18G A35U A56G the value was 0.04; for U1C G8A A18G A35U A64G, 0.05.
With U1C U51G U54C, the self-cleavage came out at 1.03.
Regarding U1C C14U A45U U49A, the self-cleavage was determined as 0.07.
To U1C A18U A35G A45U C62U A64U U66G belongs 0.2.
To A2C U31G U41C C68A belongs 0.25; to U1C G8C G22A A28U C29A C32U U66C, 0.03; to U1G U41G A64C, 0.21.
U1C A20U U54A A56G: the self-cleavage came out at 0.47.
For U1C U41G U78C, the self-cleavage is 0.34.
To U1C C29G U58C belongs 0.32; to U1C U26C A28G A35G U69C, 0.09; to U1C U41A U54C U74G U80C, 0.28.
U1C A13U G24C: the self-cleavage came out at 0.19.
Turning to U1C A75G U78C, the self-cleavage worked out at 0.67.
Consider A2G A5C U76C, for which the self-cleavage stood at 1.08.
On to U1C G7A G53U, for which the self-cleavage stood at 0.4.
Turning to U1C U41C U67C U76C A77U, the self-cleavage stood at 0.16.
To U1C A15G U60C A64C belongs 0.39; to U1C A13U U31C U80C, 1.03; to A2G A5C A21G A35C A45G U60C, 0.09.
For U1C A18U A64G U78C the value was 0.17.
Consider U1C U54C A65U U72A U76C, for which the self-cleavage worked out at 0.21.
Take U1G A64U U66C: the self-cleavage stood at 0.3.
Take U1C U26A U31C: the self-cleavage was determined as 0.5.
As for A2G A18G U26C G63A U66C U72A U80C, the self-cleavage came to 0.05.
Turning to A2C U60A U69C, the self-cleavage was 0.18.
With A2G A18C U76C, the self-cleavage worked out at 0.15.
For the variant U1C A5G A21C U25C A56G, the self-cleavage stood at 0.12.
As to U1C A35G U43A U58C U60A, the self-cleavage is 0.65.
As for U1C A15G U25A U43C U58A A77U, the self-cleavage worked out at 0.02.
With U1C G9A A57G U58C G70A, the self-cleavage was 0.2.
To U1C A5G G8U U43G A56U U80C belongs 0.06; to A2G A5G A15U, 0.84.
As to A2G A5G G6A U26A U31C C40U U76C, the self-cleavage came to 0.64.
As to A2G A20G G33A A35G U49C A75G, the self-cleavage is 0.34.
As to U1C A20G U31C U43C, the self-cleavage turned out to be 0.11.
Consider U1C A18G A45G, for which the self-cleavage is 0.48.
Take U1C C23G U43A U67G: the self-cleavage worked out at 0.05.
On to A2G A3G A35U A65G, for which the self-cleavage turned out to be 0.13.
Consider U1C U41A U48C, for which the self-cleavage was found to be 0.16.
U1C U41A A45G: the self-cleavage worked out at 0.4.
Regarding U1C G9A A13G A15U U80C, the self-cleavage was 0.43.
To U1C U25C G53U U74C U80C belongs 0.36.
To A2C A28G U41C A77G belongs 0.49; to U1C U41A U80C C81A, 0.42.
Consider U1C A15G G24A U31C A64U U74C, for which the self-cleavage was 0.04.
As for U1C A21G C27A A28G C34A, the self-cleavage turned out to be 0.33.
For U1C U31C U51C U58A C79U, the self-cleavage worked out at 0.17.
Consider A2G A5U C29U U31A, for which the self-cleavage is 0.22.
Take U1C C11U A18U: the self-cleavage amounted to 0.34.
For U1C A20G U67A the value was 0.2.
Consider U1C G7A G10U U41C A45G G63U, for which the self-cleavage was 0.05.
Consider A2G A18G U69A U78A, for which the self-cleavage was determined as 0.09.
For U1C A18G U51A G61A C68U, the self-cleavage was 0.43.
Regarding U1G G9C U54C, the self-cleavage was 0.43.
U1C A13U C17U U41A A65G: the self-cleavage amounted to 0.06.
For A2G A20G C29U U43C U58C the value was 0.47; for U1C A20C A35G U69C, 0.83; for U1C A15G U41A A45U A57G U58A, 0.05.
With U1C A5G U25C A35G U43C U67A, the self-cleavage was 0.19.
For U1C A64G U78C, the self-cleavage was found to be 0.62.
To U1C U48C C68G U72C belongs 0.28; to A2G A5U U26C U41C, 0.19; to A2C A15C A28C U48A U51A U76C, 0.08.
As to U1C C17U U72A, the self-cleavage worked out at 0.22.
As for A2G A3G A28G C39U U54C, the self-cleavage came out at 0.48.
Regarding U1C A20U A56G U60G A64G, the self-cleavage was determined as 0.16.
A2G A18G U25A U43A U76C: the self-cleavage is 0.06.
To U1C A13G A18U A45U belongs 0.06; to A2G A5U U26G U43A C68U G70A, 0.07.
To A2G A20G A21U U26A belongs 0.26.
A2G A13C A15C A21U U25C C29A U60C: the self-cleavage was found to be 0.08.
For U1C A45G U80C the value was 0.54.
As to A2G A18G U31C, the self-cleavage worked out at 0.08.
Take U1C A18C A21G: the self-cleavage turned out to be 0.06.
Take U1C G6A C12U A15G A28U A35U: the self-cleavage was 0.05.
As to A2G A3G A5G A15U U48C, the self-cleavage stood at 0.31.
To U1C C11G U25A U51C belongs 0.08; to A2C A13U A56U A64G, 0.26.
Turning to U1C C12U U60A, the self-cleavage stood at 0.84.
Regarding U1C A28G G52A U72C, the self-cleavage turned out to be 0.85.
For U1C U31A U43C, the self-cleavage came out at 0.15.
Take A2G A13U C29U A45U: the self-cleavage was found to be 0.19.
As to U1C U25C U41A A65C, the self-cleavage was 0.56.
To A2G A3G G9U A18U U31C belongs 0.14; to A2C C11U A18C U26A A28U, 0.32; to U1C A13U G24C U72G, 0.25.
For A2G A18G U48C A57G U78C the value was 0.12; for A2G A5G A13U G33C U41A U54A U78C, 0.08.
To U1C U41A G70C belongs 0.16.
